# Measurements taken from PubChem BioAssay AID1745845 (National Center for Advancing Translational Sciences (NCATS), 2022).
# About 2,600 (0.72%) of roughly 360,000 compounds were called active. The shares of active, inactive and inconclusive entries below differ from those in the screen. The call rests on the fitted dose curve; in most records, active means well fitted inhibition curve with a large enough effect; inconclusive means small, poorly fitted or top-dose-only effect; inactive means no such curve, though single readings can be large or run the other way. Potencies of inconclusive entries are doubtful fits and often do not repeat.
# Assay: Primary qHTS for Inhibitors of ATXN expression; further: nearly all actives have a fitted effect of over 55% in size
# Settings: HEK-293 ATXN2-luciferase reporter, luminescence, 24 h; activity change, negative = inhibition: at 57 µM (top of the series)
# Method in brief: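 ATXN2-luciferase reporter cells (luciferase flanked by upstream and downstream ATXN2 gene portions) were treated 24 h at 37 °C with compounds at up to 57 uM. SteadyGlo luminescence gave expression; GF-AFC fluorescence gave viability.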
# On the % scale 0 is the no-effect control and ±100 the full control effect; potency means the concentration at half of the fitted maximal effect; tags describe the fitted curve by direction and shape.
Structure (SMILES),Potency,"activity change, negative = inhibition"
COc1ccc(OC)c(-c2nnc3n2N=C(c2ccc(OC)c(OCC4CC4)c2)CS3)c1,"inconclusive: 31.6 µM [inhibitor, single point]",–
Cc1ccc(S(=O)(=O)c2c(C(=O)c3ccccc3)cnc3cc4c(cc23)OCCO4)cc1,–,inactive: -4.46%
O=C(Nc1cccc(Cl)c1)N(CCN1CCOCC1)Cc1cccc(Cl)c1,"inconclusive: 39.8 µM [inhibitor, single point]",–
CCOc1ccc(OCc2cccc(C(=O)Nc3ccc(CN4CCCCC4)cc3)c2)cc1,"inconclusive: 7.94 µM [inhibitor, partial curve, poor fit]",–
CC(C)N(Cc1ccccc1)C(=O)COC(=O)c1cnc(Cl)c(Cl)c1,"inconclusive: 39.8 µM [inhibitor, single point]",–
COc1ccc2c(c1)c(C(=O)N/N=C/c1ccc(Br)cc1)c(C)n2C,"inconclusive: 0.532 µM [inhibitor, full curve, poor fit]",–
NC(=S)n1[nH]c(-c2ccc([N+](=O)[O-])cc2)c(N=Nc2cccc([N+](=O)[O-])c2)c1=O,"inconclusive: 12.6 µM [inhibitor, partial curve, poor fit]",–
CC(O)(CS(=O)(=O)Cc1ccc(Cl)cc1)C(=O)Nc1cccc(C(F)(F)F)c1 (centres undefined),"inconclusive: 12.6 µM [inhibitor, partial curve, poor fit]",–
Cc1[nH]c2ccc(-c3n[nH]c(=S)n3-c3ccccc3)cc2c1C,–,inactive: 4.45%
Cc1ccc(/C=N/NC(=O)c2cc3c(ccc4ccccc43)o2)cc1[N+](=O)[O-],"inconclusive: 15.8 µM [inhibitor, partial curve, poor fit]",–
CC[n+]1ccc(/C=C/c2c[nH]c3ccccc23)cc1,"inconclusive: 22.4 µM [inhibitor, single point]",–
O=C(/C=C/c1ccccc1Br)c1ccc2c(c1)OCO2,–,inactive: 2.99%
Cc1ccc(C)c(CN2C(=O)C3(c4ccccc42)N(c2ccc(Cl)cc2)C(=O)CS3(=O)=O)c1 (centres undefined),–,inactive: 15.7%
COc1ccc(C(NC(=O)C2CCN(Cc3ccc(Oc4ccccc4)cc3)CC2)c2ccccn2)cc1 (centres undefined),"inconclusive: 39.8 µM [inhibitor, partial curve, poor fit]",–
C=CCNC(=O)C(=O)NCCOc1ccccc1Cl,–,inactive: 4.91%
O=C(O)CCC(=O)Nc1cccc(-c2csc(-c3ccccc3)n2)c1,"inconclusive: 17.8 µM [inhibitor, partial curve]",–
Cc1ccc(NC(=O)c2ccccc2F)cc1S(=O)(=O)N1CCCCCC1,–,inactive: -8.62%
COC(=O)c1cc2nc(-c3ccccc3)cc(C)n2n1,–,inactive: 0.56%
Cc1ccccc1C(=O)N1CCN(c2ccc(NC(=O)c3ccc4c(c3)OCCO4)cc2)CC1,active: 28.2 µM,–
CC(=O)c1ccc(NC(=O)c2nc(-c3ccc(C)cc3)n3c2CCCCC3)cc1,"inconclusive: 39.8 µM [inhibitor, partial curve, poor fit]",–
COc1ccc(NC(=S)N2CCN(Cc3cccc(F)c3)CC2)c(OC)c1,"inconclusive: 11.9 µM [inhibitor, partial curve]",–
Cc1ccc(C)c(CN2CCC(CNC(=O)Nc3ccc(F)c(Cl)c3)CC2)c1,"inconclusive: 15.8 µM [inhibitor, partial curve, poor fit]",–

Structure (SMILES),Potency,"activity change, negative = inhibition"
COc1cccc(C(c2nnnn2C2CCCCC2)N2CCN(C/C=C/c3ccccc3)CC2)c1OC (centres undefined),"inconclusive: 39.8 µM [inhibitor, single point]",–
Cc1ccsc1C(=O)N1CCCC(CCC(=O)NCc2ccccc2F)C1 (centres undefined),–,inactive: -8.68%
COC(=O)[C@H](C)N(Cc1ccc(Cl)c(Cl)c1)S(=O)(=O)CCN1CCCC1,–,inactive: -13.8%
CCOc1cccc(N(C(=O)Cc2cccs2)C(C(=O)NC2CCCCC2)c2cccn2C)c1 (centres undefined),–,inactive: -12.2%
Cc1ccc(NC(=O)c2cnc(N3CCN(c4ccccn4)CC3)c3ccccc23)c(Br)c1,"inconclusive: 31.6 µM [inhibitor, single point]",–
Cc1ccc(C(=O)N2CCCC(N(C)Cc3ccccc3)C2)s1 (centres undefined),–,inactive: 3.95%
Cc1nn(-c2ccccn2)c2c1C(c1ccccc1Cl)C1=C(N2)c2ccccc2C1=O (centres undefined),"inconclusive: 15.8 µM [inhibitor, partial curve, poor fit]",–
Cn1c(=O)c2c(nc(N/N=C/c3ccc(OC(=O)c4ccco4)cc3)n2Cc2ccccc2)n(C)c1=O,–,inactive: -33.1%
COc1cccc(/C=N/NC(=O)c2nnn(-c3nonc3N)c2C(C)C)c1OCc1ccc(F)cc1,"inconclusive: 17.8 µM [inhibitor, single point]",–
O=C(N/N=C\c1ccc([N+](=O)[O-])s1)c1cncc(Br)c1,active: 10 µM,–
O=C(COc1ccc([N+](=O)[O-])cc1)Nc1ccc2c(c1)CCC2,–,inactive: 10.6%
CNCC[C@H](Oc1ccc(C(F)(F)F)cc1)c1ccccc1,"inconclusive: 35.5 µM [inhibitor, partial curve, poor fit]",–
Oc1c(CN2CCc3ccccc3C2)cc(Cl)c2cccnc12,active: 5.62 µM,–
CCCC1NC(=O)c2cccnc2-n2c1nc1cc(F)c(F)cc1c2=O (centres undefined),"inconclusive: 31.6 µM [inhibitor, partial curve, poor fit]",–
COc1ccc(NC(=O)CC2C(=O)N(C)C(=S)N2CCc2ccc(F)cc2)cc1 (centres undefined),–,inactive: -36.9%
O=C(c1cc(Cl)nc2ccccc12)N1CCN(S(=O)(=O)c2cccc(F)c2)CC1,–,inactive: 1.14%
Cc1ccc(NC(=O)c2csc(-c3ccccc3)c2C)cc1,"inconclusive: 20 µM [inhibitor, single point]",–
COC(=O)C1C(=O)OC(C)(C)C1C(C)C(=O)c1ccccc1 (centres undefined),–,inactive: 2.02%
CCN(CCO)c1ccc(Nc2cc(-c3ccc(-c4ccccc4)cc3)ncn2)cc1,"inconclusive: 31.6 µM [inhibitor, single point]",–
NC(=S)N/N=C\c1c2ccccc2cc2ccccc12,"inconclusive: 17.8 µM [inhibitor, partial curve]",–
CCCc1cnc(NCCNCC(O)COc2ccc(Cl)c(Cl)c2)nc1 (centres undefined),"inconclusive: 39.8 µM [inhibitor, partial curve, poor fit]",–
COc1ccc(NC(=O)CSc2nnc3n2CCCCC3)cc1,–,inactive: -11.3%
